{"source": "PubChem BioAssay AID686979", "about": "(National Center for Advancing Translational Sciences (NCATS), 2013)", "note": "The whole screen tested about 420,000 compounds, of which about 50,000 (12%) were called active. Inconclusive means that the source gave no clear call. Such entries were picked first, then a sample of the others. The call rests on the fitted dose curve; in most records, active means well fitted inhibition curve with a large enough effect; inconclusive means small, poorly fitted or top-dose-only effect; inactive means flat fitted curve, though single readings scatter. Potencies of inconclusive entries are left out as doubtful fits. On the % scale 0 is the no-effect control and ±100 the full control effect; potency means the concentration at half of the fitted maximal effect; tags describe the fitted curve by direction and shape."}
{"assay": "qHTS for Inhibitors of human tyrosyl-DNA phosphodiesterase 1 (TDP1): qHTS in cells in presence of CPT; further: nearly all actives have a fitted effect of over 55% in size", "details": "chicken DT40 Tdp1-/-;hTDP1 cells + 20 nM CPT, ATP luminescence, 48 h; activity change, negative = growth inhibition: at 46.2 µM (top of the series) unless noted", "outline": "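Cell growth measured by CellTiter-Glo luminescence after a minimum 48 h, 37 C compound exposure with 20 nM CPT in Tdp1-knockout DT40 cells stably expressing hTDP1, seeded 400/well; qHTS titration format.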"}
{"smiles": "COc1cc(OC)cc(C(=O)Nc2nnc(SCC(=O)NCC3CCCO3)s2)c1", "note": "(centres undefined)", "activity change, negative = growth inhibition": "inactive: -19.8%"}
{"smiles": "CCCCCCCCS(=O)c1sc2nc(C)cc(C)c2c1N", "note": "(centres undefined)", "Potency": "inconclusive [inhibitor, partial curve, poor fit]"}
{"smiles": "Cc1cn([C@H]2C[C@H](N=[N+]=[N-])[C@@H](CO)O2)c(=O)[nH]c1=O", "Potency": "active: 21.1 µM"}
{"smiles": "O=C(CS(=O)(=O)c1ccccc1)c1ccc2c(c1)OCCO2", "Potency": "active: 14.6 µM"}
{"smiles": "Nc1nc(SCC(=O)Nc2cccnc2Cl)n[nH]1", "Potency": "inconclusive [inhibitor, single point]"}
{"smiles": "O=C(OCc1cn([C@@H]2CN(Cc3cccs3)[C@@H](c3ccc(Cl)cc3)C[C@H]2O)nn1)c1ccccc1", "Potency": "inconclusive [inhibitor, single point]"}
{"smiles": "CCCc1cc(=O)[nH]c(SCc2nc(-c3ccc(OC)cc3)no2)n1", "Potency": "inconclusive [inhibitor, single point]"}
{"smiles": "COc1ccc(-n2c(=S)[nH]c3cc(C(=O)NCc4ccccc4OC)ccc3c2=O)c(OC)c1", "activity change, negative = growth inhibition": "inactive: 4.62%"}
{"smiles": "COc1ccccc1OCC(=O)N1CCCC(Nc2ccc(C)c(C)c2)C1", "note": "(centres undefined)", "Potency": "inconclusive [inhibitor, single point]"}
{"smiles": "COc1ccc(Oc2ccc(C(F)(F)F)cc2N)cc1", "Potency": "inconclusive [inhibitor, single point]"}
{"smiles": "COC(=O)[C@@H](N)CS", "Potency": "inconclusive [inhibitor, partial curve, poor fit]"}
{"smiles": "CC1CC(C)CN(CCOc2ccc(Cl)cc2Cl)C1", "note": "(centres undefined)", "Potency": "inconclusive [inhibitor, partial curve]"}
{"smiles": "CN(C)S(=O)(=O)c1cccc(NC(=O)CCCSc2ccccc2)c1", "Potency": "inconclusive [inhibitor, single point]"}
{"smiles": "Cc1c(S(=O)(=O)c2ccccn2)c(N)n(Cc2cccc(Cl)c2)c1C", "Potency": "inconclusive [inhibitor, single point]"}
{"smiles": "Cc1ccc(C)c(-n2ccnc2SCC(=O)c2c(N)n(C3CC3)c(=O)[nH]c2=O)c1", "Potency": "inconclusive [inhibitor, partial curve, poor fit]"}
{"smiles": "O=C(NCc1ccco1)C1CCCN1C(=O)Nc1ccccc1Cl", "note": "(centres undefined)", "activity change, negative = growth inhibition": "inactive: -0.721%"}
{"smiles": "O=C(OCc1cn([C@@H]2CN(CC3CCCCC3)[C@@H](c3ccc(Cl)cc3)C[C@H]2O)nn1)c1ccccc1", "activity change, negative = growth inhibition": "inactive: -3.9%"}
{"smiles": "CN1CCN(CCCc2c3c(cc4c2CCC4)CCC3)CC1", "Potency": "inconclusive [inhibitor, single point]"}
{"smiles": "Cc1ccc(C)c(NC(=O)Cn2c(=O)n(Cc3ccco3)c(=O)c3ccc(C(=O)NC4CCCC4)cc32)c1", "Potency": "inconclusive [inhibitor, single point]"}
{"smiles": "CC(C)c1onc(C(=O)Nc2cccnc2Cl)c1[N+](=O)[O-]", "Potency": "active: 23.1 µM"}
{"smiles": "CC(C)CCn1c(SCCN2CCOCC2)nc2c1c(=O)[nH]c(=O)n2C", "Potency": "inconclusive [inhibitor, single point]"}
{"smiles": "O=C(c1cc(=O)c2ccccc2o1)N1CCN(c2cccc(Cl)c2)CC1", "Potency": "inconclusive [inhibitor, single point]"}
{"smiles": "N#Cc1ccccc1Cn1c(=O)n(-c2ccc(F)c(Cl)c2)c(=O)c2sccc21", "activity change, negative = growth inhibition": "inactive: -24.1%"}
{"smiles": "Cc1ccccc1S(=O)(=O)NNC(=O)C(=O)NNc1ccccn1", "Potency": "inconclusive [inhibitor, single point]"}
{"smiles": "CC(C)Oc1ccc(C(=O)Nc2ccc(N3CCN(C(=O)c4ccco4)CC3)cc2)cc1", "Potency": "inconclusive [inhibitor, single point]"}
{"smiles": "Cc1cccc(C)c1OCC(O)CNC(C)C", "note": "(centres undefined)", "activity change, negative = growth inhibition": "inactive: -1.32%"}
{"smiles": "CCC(=O)O/N=C(\\N)c1ccc(Oc2cc(C)c(Cl)c(C)c2)c([N+](=O)[O-])c1", "activity change, negative = growth inhibition": "inactive: -13%"}
{"smiles": "CC(/C=N/NC(=O)C(O)c1ccccc1)=C\\c1ccccc1", "note": "(centres undefined)", "activity change, negative = growth inhibition": "inconclusive: -30.1% [inhibitor]"}
{"smiles": "C=CCn1c(SCC(=O)NCC)nc2sc3c(c2c1=O)CCC3", "activity change, negative = growth inhibition": "inactive: 6.75%"}
{"smiles": "Cn1c(=O)n(C)c2cc([N+](=O)[O-])c(N3CCN(C(=O)c4ccc(F)cc4)CC3)cc21", "Potency": "active: 18.4 µM"}
{"smiles": "O=S1(=O)N[C@@H](Cc2ccccc2)COc2cc(N3CCC[C@@H]3CO)ccc21", "Potency": "inconclusive [inhibitor, partial curve]"}
{"smiles": "Cc1ccc(-n2nnnc2Sc2nc([N+](=O)[O-])nn2C)c(C)c1", "Potency": "active: 16.4 µM"}
{"smiles": "CC(=O)c1cnc2nc(SCc3ccc(C)cc3)nn2c1C", "Potency": "inconclusive [inhibitor, single point]"}
{"smiles": "Cc1ccc(S(=O)(=O)Nc2cc3c(C(=O)OCc4ccccc4)c(C)oc3c3ccccc23)cc1", "Potency": "inconclusive [inhibitor, single point]"}
{"smiles": "S=c1nc[nH]c2c1[nH]c1ccc(Cl)cc12", "activity change, negative = growth inhibition": "inactive: -5.62%"}
{"smiles": "O=C(C1CCN(c2ncnc3c2nc2n3CCCCC2)CC1)N1CCN(c2ccccc2)CC1", "Potency": "inconclusive [inhibitor, single point]"}
{"smiles": "CCc1ccc(C(=O)NNC(=S)Nc2ccc(S(N)(=O)=O)cc2)s1", "activity change, negative = growth inhibition": "inactive: 7.88%"}
{"smiles": "CC(=O)Nc1ccc(CN2C(=O)C(CCc3ccccc3)ON=C2c2cnccn2)cc1", "note": "(centres undefined)", "Potency": "inconclusive [inhibitor, single point]"}
{"smiles": "COc1ccc(C(=O)COc2ccc(C)cc2NC(C)=O)cc1", "Potency": "inconclusive [inhibitor, single point]"}
{"smiles": "O=C(C1=C(Nc2ccccc2)c2ccccc2S(=O)(=O)N1)c1ccccc1", "Potency": "inconclusive [inhibitor, single point]"}
{"smiles": "COc1cccc(-c2cncnc2NCCc2cnc[nH]2)c1", "Potency": "active: 2.59 µM"}
{"smiles": "O=C(N/N=C/c1cn(-c2ccccc2)nc1-c1cccs1)c1ccc(Cl)cc1", "Potency": "inconclusive [inhibitor, single point]"}
{"smiles": "CCn1cc(C(=O)NCc2ccc(Cl)cc2)c(=O)c2cc(S(=O)(=O)N(C)C)ccc21", "Potency": "inconclusive [inhibitor, single point]"}
{"smiles": "COc1ccc(F)cc1NC(=O)C1CCN(c2nc(-c3ccc(OC)c(OC)c3)no2)CC1", "Potency": "active: 4.61 µM"}
